The BET-seq Pho4 binding data (Le et al. 2018)
This is one part of the list. Values were computed here from the reads of four pooled replicates and scatter widely.

What follows are sequences tested against T1, Pho4 (S. cerevisiae) (UniProt P07270) (assay: relative binding free energy (BET-seq); higher = weaker binding). Conditions: reference: library average.
T1 sequence: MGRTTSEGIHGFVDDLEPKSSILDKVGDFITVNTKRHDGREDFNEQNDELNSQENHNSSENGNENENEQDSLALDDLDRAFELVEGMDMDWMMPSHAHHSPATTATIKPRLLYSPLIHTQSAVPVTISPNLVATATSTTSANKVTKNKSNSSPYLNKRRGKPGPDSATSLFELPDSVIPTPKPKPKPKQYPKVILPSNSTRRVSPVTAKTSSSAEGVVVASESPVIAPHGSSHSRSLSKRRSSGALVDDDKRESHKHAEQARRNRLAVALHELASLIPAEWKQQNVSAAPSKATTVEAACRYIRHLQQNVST

Row | Sequence | relative binding free energy
1 | ATCTGCACGTGTGTTG | -0.12 kcal/mol
2 | GCGAGCACGTGGTGCG | -0.08 kcal/mol
3 | CTTTACACGTGTGTTA | 0.24 kcal/mol
4 | TGCGTCACGTGATGTT | 0.3 kcal/mol
5 | ATTTTCACGTGCTTTT | 0.26 kcal/mol
6 | TTAGCCACGTGGTGGA | -0.07 kcal/mol
7 | GTTAGCACGTGTTGCC | 0.2 kcal/mol
8 | TTTGGCACGTGAATAA | 0.03 kcal/mol
9 | TTCGTCACGTGTGTTG | 0.06 kcal/mol
10 | GTTACCACGTGAGGTG | 0.17 kcal/mol
11 | ATTGTCACGTGCAGGG | 0.04 kcal/mol
12 | CAAGTCACGTGTTGGT | 0.14 kcal/mol
13 | CTGGTCACGTGGTGGA | 0.05 kcal/mol
14 | AGGATCACGTGGTAAG | 0.05 kcal/mol
15 | TTATTCACGTGTAGCG | 0.04 kcal/mol
16 | GAATGCACGTGTAGTA | 0.08 kcal/mol
17 | TGGAACACGTGTGAGG | 0.17 kcal/mol
18 | TTATTCACGTGGTCTA | 0.04 kcal/mol
19 | GGGCTCACGTGCGTGT | 0.11 kcal/mol
20 | CGTGACACGTGGATTT | 0.07 kcal/mol
21 | AAGGGCACGTGAGATT | 0.11 kcal/mol
22 | TCATTCACGTGGTATT | 0.18 kcal/mol
23 | TGATTCACGTGTGGGA | 0.32 kcal/mol

Row | Sequence | relative binding free energy
24 | GGGAACACGTGGGCAG | -0.03 kcal/mol
25 | ATGTCCACGTGGGGCG | -0.09 kcal/mol
26 | AGTGGCACGTGATATT | -0.14 kcal/mol
27 | CGTTTCACGTGGTTGT | 0.28 kcal/mol
28 | GTGTTCACGTGTGGGG | 0.3 kcal/mol
29 | TCGGTCACGTGTCATG | 0.15 kcal/mol
30 | TGAACCACGTGGTGGT | -0.02 kcal/mol
31 | TCAAGCACGTGTTTTT | 0.04 kcal/mol
32 | GGGGGCACGTGTTGAA | -0.02 kcal/mol
33 | TTTAACACGTGGCTGG | 0.04 kcal/mol
34 | GACCGCACGTGGGGTG | -0.32 kcal/mol
35 | CACGACACGTGGGTGT | -0.16 kcal/mol
36 | AGGTCCACGTGGTGAA | 0.06 kcal/mol
37 | GGTAGCACGTGAAAGT | 0.24 kcal/mol
38 | TTAAGCACGTGATATA | -0.09 kcal/mol
39 | TGGTACACGTGATACG | 0.14 kcal/mol
40 | GGGGTCACGTGTGAGA | 0.17 kcal/mol
41 | GGGGGCACGTGGGACA | -0.15 kcal/mol
42 | TGGGCCACGTGTAGTG | -0.04 kcal/mol
43 | TGGAGCACGTGTGAGC | 0.15 kcal/mol
44 | TAGATCACGTGGATTT | 0.2 kcal/mol
45 | GGGGGCACGTGTGTGG | -0.02 kcal/mol
46 | TTGTTCACGTGACAAG | 0.31 kcal/mol

Row | Sequence | relative binding free energy
47 | GTGTACACGTGGGTGT | -0.11 kcal/mol
48 | ATTTTCACGTGCTTGG | 0.2 kcal/mol
49 | CGGGTCACGTGAGGAG | 0.35 kcal/mol
50 | TGTAGCACGTGTAGCA | -0.04 kcal/mol
51 | GGGTACACGTGCGGTA | 0.07 kcal/mol
52 | TGTTACACGTGCATTA | 0.14 kcal/mol
53 | CGTGCCACGTGGGTAG | -0.1 kcal/mol
54 | GGTGGCACGTGTAGCT | -0.07 kcal/mol
55 | GTGAACACGTGTGTGA | 0.01 kcal/mol
56 | AGTGACACGTGAGCTG | 0.21 kcal/mol
57 | TTATTCACGTGTTCGA | 0.24 kcal/mol
58 | GGAGGCACGTGAGTAA | 0.27 kcal/mol
59 | TTGTCCACGTGGAATT | 0.18 kcal/mol
60 | CAAGCCACGTGGGGTG | -0.16 kcal/mol
61 | TTTATCACGTGGAATG | 0.17 kcal/mol
62 | AAATACACGTGGGGGG | -0.05 kcal/mol
63 | TTTTGCACGTGTGGCA | 0.06 kcal/mol
64 | TTTTTCACGTGCGTCT | 0.14 kcal/mol
65 | GTGGTCACGTGAATTG | 0.28 kcal/mol
66 | GATTTCACGTGTGTAA | 0.33 kcal/mol
67 | GTAGACACGTGGATGG | 0.1 kcal/mol
68 | TGATGCACGTGGTAGA | -0.23 kcal/mol
69 | GACGTCACGTGTAGGT | 0.18 kcal/mol

Row | Sequence | relative binding free energy
70 | ATTAGCACGTGAATGT | 0.2 kcal/mol
71 | TGGTCCACGTGATGGG | 0.14 kcal/mol
72 | AGTGCCACGTGGTTAG | -0.03 kcal/mol
73 | CAGGGCACGTGTGTTG | -0.12 kcal/mol
74 | GAAGACACGTGGGGCG | -0.05 kcal/mol
75 | ATGAGCACGTGTGTCG | -0.04 kcal/mol
76 | ATGTACACGTGTTCTG | -0.06 kcal/mol
77 | CTTTTCACGTGCTTTA | 0.19 kcal/mol
78 | TTGTACACGTGGTACG | -0.1 kcal/mol
79 | TAAATCACGTGAATGT | 0.42 kcal/mol
80 | CTTAACACGTGTTGTT | 0 kcal/mol
81 | GATGACACGTGGGTAG | -0.09 kcal/mol
82 | TTGTTCACGTGAAAAT | 0.27 kcal/mol
83 | ATAATCACGTGGTTGT | 0.08 kcal/mol
84 | CATGGCACGTGTTTAT | -0.13 kcal/mol
85 | GTATTCACGTGAGGGA | 0.39 kcal/mol
86 | GGTATCACGTGGTCAA | 0.06 kcal/mol
87 | GTGGACACGTGCTTGT | 0.01 kcal/mol
88 | TGTTGCACGTGTGGAA | 0.05 kcal/mol
89 | CGTGGCACGTGAGCCG | 0.13 kcal/mol
90 | GTTGCCACGTGGGATG | -0.19 kcal/mol
91 | GTGTGCACGTGCAATA | 0.05 kcal/mol
92 | TGGGCCACGTGAGTGT | 0.05 kcal/mol

Row | Sequence | relative binding free energy
93 | TATGGCACGTGATTTG | -0.17 kcal/mol
94 | AGCTACACGTGGTGTG | -0.03 kcal/mol
95 | AGGGTCACGTGTGTTA | 0.12 kcal/mol
96 | GGTGGCACGTGCGAGC | -0.12 kcal/mol
97 | GGTGGCACGTGGCCCG | -0.25 kcal/mol
98 | TCTAGCACGTGGGCGT | -0.2 kcal/mol
99 | ATTGGCACGTGAGAAG | 0.14 kcal/mol
100 | TAGTGCACGTGTCTTG | 0.05 kcal/mol
101 | AATATCACGTGCGGGA | 0.23 kcal/mol
102 | TGTGTCACGTGGCATC | -0.12 kcal/mol
103 | TTTCGCACGTGTTGAT | 0.03 kcal/mol
104 | TATGACACGTGTATTG | -0.01 kcal/mol
105 | AGGGACACGTGAGGAA | 0.18 kcal/mol
106 | CGTCGCACGTGGTGGA | -0.25 kcal/mol
107 | GTTAACACGTGAATGT | 0.34 kcal/mol
108 | ATGTACACGTGGGGAC | -0.08 kcal/mol
109 | TTTATCACGTGTGCGT | 0.19 kcal/mol
110 | AGTTGCACGTGGCGCT | -0.07 kcal/mol
111 | TTTTCCACGTGAGTAG | 0.22 kcal/mol
112 | GTATTCACGTGATGCA | 0.37 kcal/mol
113 | ATAAACACGTGTATAG | 0.04 kcal/mol
114 | TGTGCCACGTGACAGG | -0.02 kcal/mol
115 | TAGGACACGTGTTTGT | -0.09 kcal/mol
